The other results are listed elsewhere or left out. Repeats are few or missing, and single values can be far off.
Legend:
Experiment in all cases: cell count relative to DMSO control; melanoma cells; higher = more viable cells
Conditions in all cases: library dose: standard library concentration; 72 h
[1] = tested on: G361
[2] = tested on: IPC-298
[3] = tested on: IST-MEL1
[4] = tested on: LB2518-MEL
[5] = tested on: LOXIMVI
[6] = tested on: MEL-HO
[7] = tested on: MZ2-MEL
[8] = tested on: MeWo
[9] = tested on: RPMI7951
[10] = tested on: RVH-421
[11] = tested on: SkMel28
[12] = tested on: SkMel2
[13] = tested on: SkMel30
[14] = tested on: SkMel5
[15] = tested on: UACC257
[16] = tested on: UACC62
[17] = tested on: WM115
[18] = tested on: WM1716
[19] = tested on: WM3526
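Also: cells treated in 1,536-well plates, then fixed and DAPI-stained, with nuclei counted from automated high-throughput microscope images.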

Question: What does the source list for `Nc1ncn([C@H]2C[C@H](O)[C@@H](CO)O2)c(=O)n1` [decitabine] + O=C1NC(=O)/C(=C/c2ccc(-c3ccc(F)cc3O)o2)S1 [AS252424] (first compound 0.5 µM, partner dose 5 µM)?
Answer: cell count [1]: 69.7%; cell count [2]: 55.1%; cell count [3]: 80.5%; cell count [4]: 80.9%; cell count [5]: 114%; cell count [6]: 63.8%; cell count [7]: 80.6%; cell count [8]: 69.1%; cell count [9]: 80.8%; cell count [10]: 85%; cell count [11]: 81.1%; cell count [12]: 83.2%; cell count [13]: 123%; cell count [14]: 68.6%; cell count [15]: 116%; cell count [16]: 73.3%; cell count [17]: 85.7%; cell count [18]: 75.2%; cell count [19]: 73.7%

Question: How did the cell count [1] turn out when `Nc1ncn([C@H]2C[C@H](O)[C@@H](CO)O2)c(=O)n1` [decitabine] + COc1ccc(-c2ccc3c(N4CCOCC4)nc(N4C[C@@H](C)O[C@@H](C)C4)nc3n2)cc1CO [KU0063794] (first compound 0.5 µM, partner dose 0.1 µM) was run?
Answer: 65.9%

Question: What about the cell count [2] of the same molecule?
Answer: 46.3%

Question: What about the cell count [3] of the same molecule?
Answer: 83.8%

Question: And the cell count [4]?
Answer: 74.7%

Question: What about the cell count [5] of the same molecule?
Answer: 75.9%

Question: And the cell count [6]?
Answer: 71.9%

Question: And the cell count [7]?
Answer: 55.9%

Question: And the cell count [8]?
Answer: 69%

Question: And the cell count [9]?
Answer: 76.1%

Question: And the cell count [10]?
Answer: 30.3%

Question: What about the cell count [11] of the same molecule?
Answer: 85.3%

Question: And the cell count [12]?
Answer: 78.5%

Question: And the cell count [13]?
Answer: 75%

Question: What about the cell count [14] of the same molecule?
Answer: 60.8%

Question: What about the cell count [15] of the same molecule?
Answer: 110%

Question: What about the cell count [16] of the same molecule?
Answer: 66.7%

Question: What about the cell count [17] of the same molecule?
Answer: 78%

Question: What about the cell count [18] of the same molecule?
Answer: 86.3%

Question: What about the cell count [19] of the same molecule?
Answer: 85.4%

Question: How did the cell count [1] turn out when `CO[C@H]1C[C@@H]2CC[C@@H](C)[C@@](O)(O2)C(=O)C(=O)N2CCCC[C@H]2C(=O)O[C@H]([C@H](C)C[C@@H]2CC[C@@H](OCCO)[C@H](OC)C2)CC(=O)[C@H](C)/C=C(\C)[C@@H](O)[C@@H](OC)C(=O)[C@H](C)C[C@H](C)/C=C/C=C/C=C/1C` [everolimus] + COC(=O)c1sccc1S(=O)(=O)Nc1ccc(Nc2ccccc2)cc1OC [GSK0660] (first compound 0.1 µM, partner dose 5 µM) was run?
Answer: 59.4%

Question: And the cell count [2]?
Answer: 68.5%

Question: And the cell count [3]?
Answer: 73.1%

Question: What about the cell count [4] of the same molecule?
Answer: 73.1%

Question: What about the cell count [5] of the same molecule?
Answer: 104%

Question: What about the cell count [6] of the same molecule?
Answer: 70.8%

Question: And the cell count [7]?
Answer: 62.9%

Question: What about the cell count [8] of the same molecule?
Answer: 62.9%

Question: What about the cell count [9] of the same molecule?
Answer: 65.9%

Question: And the cell count [10]?
Answer: 89.7%

Question: And the cell count [11]?
Answer: 50.9%

Question: And the cell count [12]?
Answer: 58%

Question: And the cell count [13]?
Answer: 65%

Question: And the cell count [14]?
Answer: 47%

Question: And the cell count [15]?
Answer: 91.7%

Question: What about the cell count [16] of the same molecule?
Answer: 71.2%

Question: And the cell count [17]?
Answer: 78.2%

Question: And the cell count [18]?
Answer: 74.8%

Question: And the cell count [19]?
Answer: 59.8%

Question: `Nc1ncn([C@H]2C[C@H](O)[C@@H](CO)O2)c(=O)n1` [decitabine] + CC(C)CCN1c2nc(Nc3cc(F)c(O)c(F)c3)ncc2N(C)C(=O)C1C [BID1870] (first compound 0.5 µM, partner dose 1 µM) was tested. Which cell count [1] did it give?
Answer: 65.8%

Question: What about the cell count [2] of the same molecule?
Answer: 68.4%

Question: And the cell count [3]?
Answer: 74.2%

Question: What about the cell count [4] of the same molecule?
Answer: 79.9%

Question: And the cell count [5]?
Answer: 76%

Question: And the cell count [6]?
Answer: 70.5%

Question: And the cell count [7]?
Answer: 120%

Question: And the cell count [8]?
Answer: 63.6%

Question: And the cell count [9]?
Answer: 60.8%

Question: And the cell count [10]?
Answer: 77.2%

Question: And the cell count [11]?
Answer: 61.7%

Question: What about the cell count [12] of the same molecule?
Answer: 86.7%

Question: And the cell count [13]?
Answer: 88.6%

Question: And the cell count [14]?
Answer: 80.7%

Question: What about the cell count [15] of the same molecule?
Answer: 100%

Question: What about the cell count [16] of the same molecule?
Answer: 60.5%

Question: What about the cell count [17] of the same molecule?
Answer: 84.5%

Question: What about the cell count [18] of the same molecule?
Answer: 64.8%

Question: What about the cell count [19] of the same molecule?
Answer: 70.7%

Question: How did the cell count [1] turn out when `CC(=O)O[C@@]12CO[C@@H]1C[C@H](O)[C@@]1(C)C(=O)[C@H](O)C3=C(C)[C@@H](OC(=O)[C@H](O)[C@@H](NC(=O)OC(C)(C)C)c4ccccc4)C[C@@](O)([C@@H](OC(=O)c4ccccc4)[C@H]21)C3(C)C` [Docetaxel] + COc1ccc2c(c1)CCC1C2CCC2(C)C(NCCCCCCN3C(=O)C=CC3=O)CCC12 [U73122] (first compound 0.0005 µM, partner dose 2 µM) was run?
Answer: 11%

Question: What about the cell count [2] of the same molecule?
Answer: 43.9%

Question: And the cell count [3]?
Answer: 30%

Question: What about the cell count [4] of the same molecule?
Answer: 43.2%

Question: And the cell count [5]?
Answer: 49.5%

Question: And the cell count [6]?
Answer: 35.2%

Question: And the cell count [7]?
Answer: 41.9%

Question: What about the cell count [8] of the same molecule?
Answer: 17.7%

Question: And the cell count [9]?
Answer: 18.7%

Question: And the cell count [10]?
Answer: 52.2%

Question: And the cell count [11]?
Answer: 18.3%

Question: And the cell count [12]?
Answer: 14.9%

Question: And the cell count [13]?
Answer: 65%

Question: What about the cell count [14] of the same molecule?
Answer: 27.1%

Question: And the cell count [15]?
Answer: 47.1%

Question: What about the cell count [16] of the same molecule?
Answer: 55.1%

Question: What about the cell count [17] of the same molecule?
Answer: 32.2%

Question: What about the cell count [18] of the same molecule?
Answer: 32.1%

Question: What about the cell count [19] of the same molecule?
Answer: 34.2%

Question: Which cell count [1] does the source give for `Nc1ncn([C@H]2C[C@H](O)[C@@H](CO)O2)c(=O)n1` [decitabine] + COc1cc2ncnc(Nc3ccc(Oc4ccccc4)cc3)c2cc1OC [SrcI1] (first compound 0.5 µM, partner dose 10 µM) here?
Answer: 79.5%

Question: What about the cell count [2] of the same molecule?
Answer: 60.1%

Question: And the cell count [3]?
Answer: 102%

Question: What about the cell count [4] of the same molecule?
Answer: 95.8%

Question: What about the cell count [5] of the same molecule?
Answer: 88.2%

Question: And the cell count [6]?
Answer: 96.3%

Question: And the cell count [7]?
Answer: 78.4%

Question: And the cell count [8]?
Answer: 82.9%

Question: And the cell count [9]?
Answer: 63.6%

Question: What about the cell count [10] of the same molecule?
Answer: 89.7%

Question: What about the cell count [11] of the same molecule?
Answer: 63%

Question: What about the cell count [12] of the same molecule?
Answer: 85.4%

Question: And the cell count [13]?
Answer: 115%

Question: What about the cell count [14] of the same molecule?
Answer: 73.8%

Question: And the cell count [15]?
Answer: 108%

Question: What about the cell count [16] of the same molecule?
Answer: 62.1%

Question: What about the cell count [17] of the same molecule?
Answer: 75.6%

Question: And the cell count [18]?
Answer: 80.3%

Question: And the cell count [19]?
Answer: 75.1%

Question: How did the cell count [1] turn out when `Nc1nc(F)nc2c1ncn2[C@@H]1O[C@H](CO)[C@@H](O)[C@@H]1O` [fludarabine] + COc1cc(N2CCC(N3CCN(C)CC3)CC2)ccc1Nc1ncc(Cl)c(Nc2ccccc2S(=O)(=O)C(C)C)n1 [NVP-TAE684] (first compound 1 µM, partner dose 0.4 µM) was run?
Answer: 76.3%

Question: And the cell count [2]?
Answer: 70.9%

Question: What about the cell count [3] of the same molecule?
Answer: 75.2%

Question: What about the cell count [4] of the same molecule?
Answer: 78.7%

Question: What about the cell count [5] of the same molecule?
Answer: 123%

Question: And the cell count [6]?
Answer: 70.9%

Question: What about the cell count [7] of the same molecule?
Answer: 95.2%

Question: And the cell count [8]?
Answer: 74.9%

Question: And the cell count [9]?
Answer: 52.2%

Question: And the cell count [10]?
Answer: 110%

Question: What about the cell count [11] of the same molecule?
Answer: 2.97%

Question: And the cell count [12]?
Answer: 0.255%

Question: And the cell count [13]?
Answer: 12.7%

Question: What about the cell count [14] of the same molecule?
Answer: 24.4%

Question: What about the cell count [15] of the same molecule?
Answer: 25.9%

Question: What about the cell count [16] of the same molecule?
Answer: 79.3%

Question: And the cell count [17]?
Answer: 82.3%

Question: And the cell count [18]?
Answer: 91.4%

Question: And the cell count [19]?
Answer: 13.9%

Source: the supplement of paper PMC4604168 (melanoma cell lines)
